{"source": "patent US20180118841A1", "about": "(published 2018)", "binders": {"B1": {"name": "bispecific molecule 1170/1141 (as printed in Tables 10.1 and 10.2) (bispecific antibody)", "heavy": "EVQLLESGGGLVQPGGSLRLSCAASGFTFGGYYMSWVRQAPGKGLEWVSYIPGSGGSTYYADSVKGRFTISRDNSKNTLYLQMNSLRAEDTAVYYCARYDYYWMDYWGQGTLVTVSS[… human IgG1 constant region …]", "light": "not shown"}}, "key": {"[1]": {"biological_target": "T1, CTLA-4 (BMS, Orencia) (human)", "T1 chain": "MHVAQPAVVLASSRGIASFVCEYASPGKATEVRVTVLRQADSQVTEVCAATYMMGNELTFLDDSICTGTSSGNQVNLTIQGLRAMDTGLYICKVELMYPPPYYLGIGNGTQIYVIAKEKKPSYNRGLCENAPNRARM", "test": "cell-based or functional assay"}, "[2]": {"biological_target": "T1, CTLA-4 (BMS, Orencia)", "test": "cell-based or functional assay"}}, "data": [{"binder": "B1", "values": [{"measurement": "Fold change in IL-2 level induced by bispecific molecule compared to the corresponding combination of the monospecific molecules at 1.5 nM", "setting": "[1]", "value": 4.7, "unit": "fold"}, {"measurement": "Mean IL-2 level (pg/ml) induced at 1.5 nM", "setting": "[2]", "value": 2580, "unit": "pg/mL"}]}]}
